Results: the BET-seq Pho4 binding data (Le et al. 2018)
The list shows a part of the results. The energies were worked out here from pooled read counts, against the library average; single values are noisy.

Molecular target: T1, Pho4 (S. cerevisiae) (UniProt P07270)
T1 sequence: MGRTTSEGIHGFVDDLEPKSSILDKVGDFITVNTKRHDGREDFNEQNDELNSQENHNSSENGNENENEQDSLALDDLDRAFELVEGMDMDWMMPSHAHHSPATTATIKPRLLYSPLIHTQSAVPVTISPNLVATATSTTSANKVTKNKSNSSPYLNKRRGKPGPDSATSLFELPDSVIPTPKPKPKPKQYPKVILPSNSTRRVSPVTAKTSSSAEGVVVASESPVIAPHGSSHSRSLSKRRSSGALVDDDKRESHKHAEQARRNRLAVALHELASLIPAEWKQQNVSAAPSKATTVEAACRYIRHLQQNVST
Test: relative binding free energy (BET-seq); higher = weaker binding
Settings: reference: library average

Row | Sequence | relative binding free energy [kcal/mol]
1 | GTCTGCACGTGATGGA | 0.15
2 | TGTTCCACGTGGGAGT | 0
3 | GTCTGCACGTGTTGTG | 0.12
4 | AGTGTCACGTGTTGAA | 0.12
5 | ATGAACACGTGTTGTT | -0.11
6 | TGGCGCACGTGCCGTG | -0.14
7 | TTTCTCACGTGACTGT | 0.29
8 | TGTAGCACGTGGTGGG | -0.19
9 | AGTAGCACGTGGAGAG | -0.02
10 | AAAAGCACGTGTATTA | 0.1
11 | ATATACACGTGGTGAT | -0.21
12 | CTAGTCACGTGGAGAG | 0.03
13 | TTAAACACGTGTGTGC | 0.04
14 | TATTTCACGTGCCTTG | 0.12
15 | CTAATCACGTGGTAGA | 0.15
16 | GCTATCACGTGGGAGT | 0.14
17 | TGTCTCACGTGAGGTA | 0.28
18 | TAATTCACGTGTAGAT | 0.54
19 | CTTAACACGTGTTAGG | -0.08
20 | AGTATCACGTGTACGG | 0.02
21 | TTTTCCACGTGTAGTC | 0.29
22 | ATATGCACGTGAGTCG | 0.23
23 | AAAGGCACGTGAAAGG | 0.07

Row | Sequence | relative binding free energy [kcal/mol]
24 | TGGCACACGTGGGGAA | 0.01
25 | GGTGTCACGTGCATGT | 0.17
26 | CTGGACACGTGGTATG | -0.14
27 | GTAGGCACGTGTTTGG | 0.02
28 | TTCATCACGTGTTTTG | 0.2
29 | GGTCTCACGTGAGAAG | 0.41
30 | TAGTTCACGTGGCCGT | 0.16
31 | CGGAGCACGTGTGAGA | 0.09
32 | TAGGCCACGTGGAGGG | -0.15
33 | ATTAGCACGTGGTTTG | -0.05
34 | TGGGGCACGTGAATGT | 0.12
35 | TGGTTCACGTGCTATT | 0.18
36 | ATTTGCACGTGGTAAG | -0.1
37 | GTTGCCACGTGGTTGG | -0.07
38 | GGTGACACGTGTGCTG | 0.1
39 | GGTGTCACGTGGAGTC | 0.1
40 | TAGATCACGTGGGCTT | 0.06
41 | GTTTTCACGTGGTGGG | 0.31
42 | GTGGCCACGTGTGCTT | 0.03
43 | TCTATCACGTGATGTG | 0.19
44 | TATCTCACGTGGAGTG | 0.27
45 | TTTTACACGTGGGAGC | 0.12
46 | GGGGTCACGTGGGGGC | 0.06

Row | Sequence | relative binding free energy [kcal/mol]
47 | GTCGGCACGTGTACGG | 0.05
48 | TGTGGCACGTGATTCT | 0.14
49 | GGTATCACGTGGGGGG | 0.02
50 | AGCAGCACGTGGGTGA | -0.2
51 | CTTATCACGTGGGTTC | -0.01
52 | TTTATCACGTGGGTAC | 0.05
53 | TATAACACGTGGTCGG | -0.17
54 | TCGGGCACGTGACGGG | -0.01
55 | GTGACCACGTGATGTG | 0.11
56 | TGGTTCACGTGGCATT | 0.14
57 | TTTTGCACGTGCGCGT | -0.12
58 | TCTTTCACGTGGTGAG | 0.3
59 | CGTTGCACGTGTTCAT | 0.02
60 | TAGAGCACGTGGTTAG | -0.05
61 | ACACGCACGTGGAGGG | -0.13
62 | GGGCGCACGTGGTGCA | -0.11
63 | GGTTTCACGTGTGCGC | 0.26
64 | TTGTTCACGTGTATTC | 0.31
65 | GTTATCACGTGTGGGT | 0.3
66 | CTTTGCACGTGCTGGT | -0.11
67 | TTGTTCACGTGGTGAA | 0.14
68 | ACATGCACGTGGTCGG | -0.09
69 | GTCTTCACGTGGGTGC | 0.22

Row | Sequence | relative binding free energy [kcal/mol]
70 | TGTGTCACGTGTCAGT | -0.09
71 | TAATACACGTGGCGTT | -0.09
72 | ACTGTCACGTGTTAAG | 0.12
73 | TTTCGCACGTGACTTG | 0.06
74 | GTTTTCACGTGAGGGA | 0.41
75 | AGTAGCACGTGGCAGG | -0.16
76 | GTCTACACGTGTTTTG | 0.14
77 | ATAGGCACGTGGTAGT | -0.15
78 | AGGTCCACGTGAGATG | 0.24
79 | AGGGGCACGTGTTACG | 0.01
80 | ATTAGCACGTGGTCAG | -0.31
81 | CTATTCACGTGTTGCG | 0.22
82 | TGTATCACGTGTAAGG | 0.16
83 | CTTGGCACGTGGTTTC | -0.03
84 | CAGTTCACGTGGGAGT | 0.18
85 | ATGTTCACGTGAGTTT | 0.52
86 | TTGTGCACGTGTGCAA | 0.02
87 | GTGTTCACGTGTATAC | 0.29
88 | GCAAGCACGTGGGTGT | -0.28
89 | ATGGGCACGTGAGAAT | 0.1
90 | TTCAGCACGTGTGGCT | -0.12
91 | CTTGGCACGTGTGGTG | 0.01
92 | TTGAACACGTGGCGGG | -0.01

Row | Sequence | relative binding free energy [kcal/mol]
93 | TGGTACACGTGGTTCG | 0.03
94 | GAAGTCACGTGTATTT | 0.2
95 | GTAGTCACGTGTGACT | 0.24
96 | ATGCGCACGTGGGAAG | -0.19
97 | ACGTGCACGTGTTGTA | -0.2
98 | GGTTTCACGTGAAGTT | 0.45
99 | AGGAACACGTGTTTAG | 0
100 | GAGAGCACGTGTGGGG | -0.01
101 | CGGGGCACGTGCATAG | -0.17
102 | TTTAACACGTGACGTA | 0.29
103 | GCCGTCACGTGAGGGT | 0.26
104 | GGGCACACGTGTGGCT | 0.14
105 | TTTGGCACGTGTTAGT | -0.03
106 | ATGGGCACGTGAAAGT | 0.07
107 | TGTACCACGTGGTTTC | -0.01
108 | GTATTCACGTGTAGGC | 0.23
109 | GATTGCACGTGCAGTT | 0.03
110 | CGAGGCACGTGGGCAG | -0.29
111 | CGGTGCACGTGCGTGT | -0.05
112 | AATGTCACGTGGGAGG | -0.1
113 | TTCTGCACGTGCGTTT | 0.08
114 | ATGTGCACGTGGCTTG | 0.02
115 | GAGGGCACGTGGATTA | 0.07
